# Assay results taken from publication PMC4336329 (PLoS ONE, 2015).
# The whole screen tested about 310,000 compounds, of which about 14,000 (4.5%) showed an effect of 50% or more. The effect is printed as a negative number. Some of the results follow.
# Molecular target: human ether-à-go-go-related gene (hERG) potassium channel (human, UniProt Q12809)
# Assay: primary screen, population patch clamp on CHO cells stably expressing hERG
# 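Note: peak tail current of the secondary pulse compared with the same well before compound.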
# human ether-à-go-go-related gene (hERG) potassium channel, sequence (Q12809 whole entry, looked up): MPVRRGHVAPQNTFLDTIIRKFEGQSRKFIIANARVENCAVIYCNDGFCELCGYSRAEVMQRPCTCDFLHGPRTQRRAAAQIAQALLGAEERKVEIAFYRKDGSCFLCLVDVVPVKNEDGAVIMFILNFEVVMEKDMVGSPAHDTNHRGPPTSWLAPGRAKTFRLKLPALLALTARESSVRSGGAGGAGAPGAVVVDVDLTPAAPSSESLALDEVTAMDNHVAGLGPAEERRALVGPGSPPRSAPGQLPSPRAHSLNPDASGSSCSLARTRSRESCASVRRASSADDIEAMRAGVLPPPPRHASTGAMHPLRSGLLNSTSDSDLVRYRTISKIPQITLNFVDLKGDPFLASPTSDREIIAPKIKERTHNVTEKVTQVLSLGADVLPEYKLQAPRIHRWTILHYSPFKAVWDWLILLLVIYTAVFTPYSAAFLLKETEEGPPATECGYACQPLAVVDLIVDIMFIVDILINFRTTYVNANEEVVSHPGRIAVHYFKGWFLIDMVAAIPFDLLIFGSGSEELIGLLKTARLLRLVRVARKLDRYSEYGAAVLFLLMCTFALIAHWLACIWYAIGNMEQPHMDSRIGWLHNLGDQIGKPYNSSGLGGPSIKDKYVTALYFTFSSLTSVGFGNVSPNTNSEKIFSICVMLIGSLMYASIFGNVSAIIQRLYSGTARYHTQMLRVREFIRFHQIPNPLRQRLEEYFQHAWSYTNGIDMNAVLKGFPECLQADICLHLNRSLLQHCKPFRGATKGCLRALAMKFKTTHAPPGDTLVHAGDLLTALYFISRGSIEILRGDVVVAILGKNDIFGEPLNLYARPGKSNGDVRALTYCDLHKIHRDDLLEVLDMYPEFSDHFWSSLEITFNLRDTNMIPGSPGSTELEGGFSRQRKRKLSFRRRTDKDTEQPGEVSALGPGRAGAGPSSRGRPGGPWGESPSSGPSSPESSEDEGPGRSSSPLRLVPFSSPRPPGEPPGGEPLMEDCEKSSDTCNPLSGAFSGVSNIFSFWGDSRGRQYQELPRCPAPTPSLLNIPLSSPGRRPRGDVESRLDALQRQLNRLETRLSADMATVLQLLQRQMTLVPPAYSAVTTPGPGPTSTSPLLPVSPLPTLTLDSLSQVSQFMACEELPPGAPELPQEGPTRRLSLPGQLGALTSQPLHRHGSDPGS
row,Structure (SMILES),"hERG current change (%, negative = inhibition) at 10uM [%]"
1,O=C(Nc1ccc2nc(N3CCOCC3)sc2c1)c1ccc(F)cc1,-8.16
2,CCOC(=O)CCNC(=O)CNC(=O)OCc1ccccc1,10.8
3,CC(=O)n1cc([C@H]2C=C(C(=O)N3CCN(Cc4ccc5c(c4)OCO5)CC3)O[C@@H](OCc3ccc(CO)cc3)C2)c2ccccc21,3.43
4,COc1ccc(OCC(=O)NNC(=O)C2CCCO2)cc1 (stereo not drawn),5.39
5,CC(=O)N1CCN(c2ccccc2NC(=O)c2cc(Br)ccc2Cl)CC1,-66.6
6,O=C(O)C(=O)O.O=C(c1cccc2ccccc12)N1CCN(Cc2ccccc2F)CC1,5.84
7,COc1cccc(CNC(=O)CCS(=O)(=O)c2ccc3c(c2)NC(=O)CS3)c1,-3.23
8,O=C(CS(=O)(=O)c1c[nH]c2ccccc12)N1CCCCC1,9.51
9,O=C(NC(C(=O)N1CCCC1C(=O)O)=C1CCCCC1)c1ccccc1 (stereo not drawn),1.36
10,O=C(Nc1ccccc1)c1cc(-n2cnnc2)ccc1Cl,9.46
11,COc1cccc(NC(=O)CN(c2cccc(C(F)(F)F)c2)S(C)(=O)=O)c1,-3.67
12,O=C(O)C1CCCCC1C(=O)Nc1ccc2c(c1)CCC2 (stereo not drawn),1.57
13,COc1ccc(CC(=O)NCC(=O)N/N=C/c2sccc2C)cc1,-33.3
14,CCC1C(=O)N=C(SCC(=O)Nc2ccc(C(=O)OC)cc2)NC1=O (stereo not drawn),10.4
15,Cc1cc(=O)c2cc(NC(=O)c3ccccc3Cl)ccc2[nH]1,17.3
16,Cc1n[nH]c(C)c1S(=O)(=O)N1CCCC(C(=O)N2CCc3ccccc32)C1 (stereo not drawn),-5.49
17,CN(C)c1ccc2c(c1)Sc1cc(N(C)C)ccc1N2C(=O)c1ccccc1,17.8
18,CCCCN(CC)CCNC(=O)Cn1cnc2sc(C)c(S(=O)(=O)N3CCC(C)CC3)c2c1=O,-19.1
19,CCc1cccc(NC2c3ccccc3C(=O)N2c2ccc(C)cn2)c1 (stereo not drawn),-25.5
20,Cn1c(=O)c(-c2ccccc2)nc2ccccc21,-11.6
21,O=C(Cc1ccc(Cl)cc1)NCc1ccccc1Cl,18
22,NC(=O)NCCc1ccccc1,-1.42

row,Structure (SMILES),"hERG current change (%, negative = inhibition) at 10uM [%]"
1,CCOc1ccccc1NC(=O)CCS(=O)(=O)c1ccc(Br)cc1,18.2
2,O=[N+]([O-])c1ccc(C2CNC(c3ccccc3)O2)cc1 (stereo not drawn),15.9
3,CCOC(=O)c1ccc(NC(=O)CCNS(=O)(=O)c2cccs2)cc1,13.6
4,CCCOc1ccc(-c2nc(N)n[nH]2)cc1,-7.44
5,Cc1ccc(SCC(=O)OCC(=O)N(CCC#N)c2ccccc2)cc1,-0.0528
6,c1ccc(CCc2cc3ccccc3[nH]2)cc1,3.91
7,Cc1nn2c(c1-c1ccccc1)NC1=C(C(=O)CCC1)C2c1ccccc1 (stereo not drawn),-39.1
8,CC(C)NC(=O)Cn1c(=O)n(CC(=O)N2CCCCC2)c(=O)c2sccc21,15.9
9,c1csc(-c2nc(NCC3CCCO3)c3ccccc3n2)c1 (stereo not drawn),-20.5
10,Oc1c(CN2CCCC(C(F)(F)F)C2)cc(Cl)c2ccccc12 (stereo not drawn),14.7
11,COc1ccc(C)c2sc(N3CCCC3)nc12,-20.2
12,O=C(COC(=O)c1ccccc1O)Nc1cc(S(=O)(=O)N2CCCCCC2)ccc1Cl,-9
13,COc1ccc(-c2nnc(COc3ccc(Br)cc3C)o2)cc1,14.3
14,CCOc1ncccc1C(=O)Nc1cc(S(=O)(=O)N2CCCCC2)ccc1OC,-8.23
15,Cc1ccc(NC(=O)CSc2ncnc3ccccc23)cc1S(=O)(=O)N1CCCCCC1,-22.6
16,O=C1C2CCCN2C(c2cccnc2)N1c1cccc(Cl)c1 (stereo not drawn),-5.37
17,O=C(CC1SCCNC1=O)Nc1cc(Cl)cc(Cl)c1 (stereo not drawn),-31.4
18,COc1ccc(-n2c(SCCNCCO)nc3sc4c(c3c2=O)CCCC4)cc1,-55.7
19,Cn1c(Cn2c(=O)sc3ccccc32)nnc1SCC(=O)NCc1ccccc1,-0.25
20,Cc1cc2n(n1)C(c1ccc3c(c1)OCO3)Nc1c(C)cccc1-2 (stereo not drawn),2.58
21,CCCCn1ccnc1C(=O)c1cc(S(=O)(=O)N2CCOCC2)ccc1C,-4.88
22,CCCCN(C(=O)CSc1nnc(-c2ccco2)o1)c1c(N)n(Cc2ccccc2)c(=O)[nH]c1=O,4.8

row,Structure (SMILES),"hERG current change (%, negative = inhibition) at 10uM [%]"
1,Cc1cc(=O)oc2c(C)c(OCC(=O)N3CCN(C(=O)C4COc5ccccc5O4)CC3)ccc12 (stereo not drawn),-50.4
2,c1ccc(Cn2ncc3c(NCc4ccco4)ncnc32)cc1,-6.2
3,O=C(OCCOc1cccc(Cl)c1)c1cc(S(=O)(=O)N2CCOCC2)ccc1F,-14
4,O=C(Nc1ccccc1)OCCCCCOC(=O)Nc1ccccc1,22.2
5,Cc1cccc(NC(=O)N2CCC(c3nc4ccccc4o3)CC2)c1,-12.4
6,COC(=O)C1=C(C)NC(C)=C([N+](=O)[O-])C1c1ccccc1C(F)(F)F (stereo not drawn),8.6
7,CSc1nc2c(c(=O)[nH]1)C(c1ccc(Br)cc1)CC(=O)N2 (stereo not drawn),-2.36
8,O=c1cc(CN2CCN(c3ccc(F)cc3)CC2)nc2sccn12,-19
9,Cc1cccc(NC(=O)C23CCC(C)(C2Br)C3(C)C)c1 (stereo not drawn),7.37
10,O=C(CCc1nnc(-c2ccccc2)o1)NC1CCCCC1,14.3
11,COc1cccc(-c2c(NC(=O)c3ccco3)n(-c3ccc(C)cc3)nc(C)c2=O)c1,-30.7
12,C/C=C(/C)C(=O)Nc1cccc(C2=NOC3(C2)C[C@@H](C(N)=O)N(C(=O)[C@H]2CCC(=O)N2)C3)c1 (stereo partly drawn),-2.5
13,CN1CCN(c2nc3c(c(=O)[nH]c(=O)n3C)n2Cc2ccc([N+](=O)[O-])cc2)CC1,-59
14,Cc1cc(NC(=O)CCC(=O)N2CCC3(CC2)OCCO3)no1,12.5
15,Cc1ccc2c(n1)CC(C)(C)C/C2=N\O,7.03
16,Cc1cccc(/C=N/c2sc3c(c2C(=O)OC(C)(C)C)CCN(C)C3)c1O,-24.7
17,CCn1cc(S(=O)(=O)Nc2nc3ccc(OC)cc3s2)cn1,19.7
18,CCOC(=O)Cc1ncccc1C(=O)Nc1ccc(OC)cc1,30.6
19,O=C(NCc1ccccc1)C1=C[C@H](C2CC2)C[C@H](OCCCCO)O1,-10.1
20,O=C(NN1C(=O)C2C3C=CC(O3)C2C1=O)c1ccccc1 (stereo not drawn),5.64
21,O=C(O)c1c2c(nc3ccc(S(=O)(=O)N4CCC(C(=O)N5CCCCC5)CC4)cc13)CCCC2,-1.48
22,Cc1cc(C)cc(OCC(O)Cn2nc(C)cc2C)c1 (stereo not drawn),-6.38

row,Structure (SMILES),"hERG current change (%, negative = inhibition) at 10uM [%]"
1,Cc1cc(C)n2nc(C(=O)N3CCN(Cc4ccc5c(c4)OCO5)CC3)nc2n1,13.8
2,c1ccc(OCCn2c(-c3ccco3)nc3ccccc32)cc1,-24
3,COc1ccc(CNC(=O)N2CCN(S(=O)(=O)c3ccccc3F)CC2)cc1,-7.02
4,N#Cc1cccc(-n2c(-c3ccccc3)nnc2-c2ccccc2)c1C#N,-9.39
5,CC(=O)Nc1ccc(S(=O)(=O)N(Cc2ccccc2)C(C)C)cc1,-13
6,COc1ccc(S(=O)(=O)N2CCOC2CNC(=O)C(=O)NCCc2c[nH]c3ccccc23)cc1C (stereo not drawn),-12
7,CC(=O)c1nn(-c2ccccc2)cc1C(=O)c1cccc(Br)c1,-0.808
8,COc1ccc(C(=O)N[C@H](C(=O)OCc2cc(=O)oc3cc(C)ccc23)C(C)C)cc1,-44.3
9,CSc1cccc(NC(C)=O)c1,5.83
10,Cc1ccc(S(=O)(=O)NCCNc2ccc([N+](=O)[O-])cc2)cc1,-22.8
11,Cc1[nH]nc2nc(SCC(=O)NCC3CCCO3)n(-c3ccc(Br)cc3)c(=N)c12 (stereo not drawn),-26.4
12,COc1ccc2c(c1)C1OCCC1C(c1ccco1)N2 (stereo not drawn),-12.5
13,COc1cc(C(=O)NCC(c2cccs2)N2CCOCC2)cc(OC)c1OC (stereo not drawn),11.5
14,COCCOC(=O)C1=C(C)Nc2ncnn2C1c1ccco1 (stereo not drawn),2.64
15,COc1ccc(OC)c(CN2CCN(C(=O)Cc3ccccc3)CC2)c1.O=C(O)C(=O)O,-4.63
16,Cc1cccc(CN2CCc3c(OCC(=O)NCc4ccco4)cccc3C2=O)c1,-51.2
17,Cc1ccc(NC(=O)C(=O)NN=C2CCCC2)cc1C,21.8
18,O=C(CN1C(=O)NC(c2ccccc2)(c2ccccc2)C1=O)N1CCN(c2ccccc2F)CC1,-17.4
19,Cc1cc([N+](=O)[O-])ccc1NCc1cccc2ccccc12,18.9
20,COc1ccc2c(c1)c1c(n2C(C)=O)C(OC(C)=O)=NCC1,-8.94
21,O=C(OC1CO[C@H]2O[C@@H]1[C@H](OC(=O)c1ccccc1)[C@H]2OC(=O)c1ccccc1)c1ccccc1 (stereo partly drawn),5.89
